PubChem BioAssay AID1347073 (National Center for Advancing Translational Sciences (NCATS), 2019)
In all, about 45,000 compounds went through this assay and about 200 (0.44%) were called active. Inconclusive results (about 7%) are left out. Calls come from the whole dose curve; as a rule, active = well fitted activation curve with a large enough effect; inconclusive = small, poorly fitted or top-dose-only effect; inactive = no such curve, though single readings can be large or run the other way. The list shows a part of the results.

Assay: qHTS of TDP-43 Inhibitors: NCGC Sytravon Library Screen; note: nearly all actives have a fitted effect of over 55% in size; for growth rescue (activation): 0% is about no effect
Details: yeast TDP-43 toxicity rescue, BacTiter-Glo growth, 24 h; series mostly up to 46.1 µM; growth rescue (activation): at the top concentration
Procedure, shortened: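 TDP-43-expressing yeast, pregrown in raffinose, seeded at OD600 0.02 in galactose medium with compound for 24 hr at 30 deg C. Growth read by BacTiter-Glo luminescence, so rescue of toxicity appears as activation.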
Potency is the fitted concentration of half-maximal effect.

SMILES	growth rescue (activation)	Potency
CC1CC(C)CN(C(=O)COC(=O)c2ccc3c(c2)OCCO3)C1 (stereo not drawn)	inactive: 13.1%	–
Cc1cccc(C(=O)N2CCC(N3CCC(C(=O)N4CCOCC4)CC3)CC2)c1	inactive: 8.24%	–
Cc1cc2c(cc(C(=O)OCC(=O)NC3CCCCC3)n2C)o1	inactive: 18.9%	–
COCCNC(=O)c1cc(-c2cccc(Cl)c2)on1	inactive: 24.2%	–
Cc1ccc(NC(=S)N2CCN(Cc3ccccc3)CC2)c(C)c1	inactive: -8.56%	–
Cc1cccc(NC(=O)Cn2c(O)c(N=NC(N)=S)c3ccccc32)c1	inactive: 7.32%	–
O=C(COC(=O)/C=C/c1cccc([N+](=O)[O-])c1)Nc1cccnc1Cl	inactive: 13.3%	–
CN1CCN(/N=C/c2ccc(-c3ccccc3)cc2)CC1	inactive: 14.5%	–
CC(=O)c1ccc(NC(=O)CN2CCCC2)cc1	inactive: -7.62%	–
COc1ccc(CN(CCC(c2ccccc2)c2ccco2)C(=O)c2ccco2)cc1 (stereo not drawn)	inactive: 12.5%	–
Cc1ccccc1OCC(=O)Nc1ccc(S(=O)(=O)Nc2ccccn2)cc1	inactive: 14.5%	–
Cc1cccc(OC(C)C(=O)N/N=C\c2ccncc2)c1 (stereo not drawn)	inactive: -0.441%	–
CCCNC(=O)C1(C)CCCN(Cc2ccc3c(c2)OCO3)C1 (stereo not drawn)	inactive: 7.81%	–
CCCC(C)(C)C(=O)N1CCC1(C)C(=O)Nc1ccc(OC)c(OC)c1 (stereo not drawn)	inactive: 25.5%	–
CS(=O)(=O)c1ncc(CO)n1Cc1ccccc1	inactive: 1.78%	–
O=C(c1nc2ccccn2c1CN1CCCC(c2nc3ccccc3o2)C1)N1CCCC1 (stereo not drawn)	inactive: 1.47%	–
CCc1ccccc1NC(=O)Nc1ccc(F)cc1F	inactive: -1.42%	–
COc1ccc(CCC(=O)N/N=C\c2cccs2)cc1	inactive: -5.23%	–
COc1ccc(S(=O)(=O)N2CCN(S(=O)(=O)c3ccc4c(c3)OCCO4)CC2)cc1C	inactive: 30.8%	–
CCOc1ccc2nc(SCC(=O)NCc3ccccc3OC)[nH]c2c1	inactive: -8.02%	–
COCC1CCN(Cc2nc(COc3ccccc3)no2)C1 (stereo not drawn)	inactive: 10.5%	–
CC(C)(C)OC(=O)N/N=C\c1ccc([N+](=O)[O-])s1	inactive: -92.3%	–

SMILES	growth rescue (activation)	Potency
Cc1c(Cc2ccccc2)c(=O)oc2c(O)c(O)ccc12	inactive: -13.3%	–
CCOCc1nnc(NC(=O)CCS(=O)(=O)Cc2ccccc2)s1	inactive: 2.42%	–
CCC(C)N(C(=O)CSc1nnc(-c2cccs2)n1C1CC1)C1CCS(=O)(=O)C1 (stereo not drawn)	inactive: 16.6%	–
Cc1cc(C)n(CCCN2C(=O)c3cccc4cccc(c34)C2=O)n1	inactive: -0.643%	–
CCN(CC)c1ccc2nc3c(=O)n(C)c(=O)n(C)c3nc2c1	inactive: -14.9%	–
COc1ccc(C)cc1S(=O)(=O)N(CC(=O)Nc1cccc([N+](=O)[O-])c1)c1ccccc1	inactive: 17.8%	–
COc1ccc(N=C2SC(CC(=O)Nc3ccccc3)C(=O)N2CC2CCCO2)cc1 (stereo not drawn)	inactive: 11.3%	–
COc1cc(/C=C/C(=O)O)cc(S(=O)(=O)NC2CC2)c1OC	inactive: -1.07%	–
CC1(Cc2cccc(F)c2)C(=O)Nc2ccc(-c3cccnc3)cc21 (stereo not drawn)	inactive: -16.9%	–
COc1ccc(NC(=O)c2ccco2)cc1NC(=O)c1ccccc1	inactive: 6.83%	–
O=C(O)Cc1c(C(=O)O)nnn1-c1cccc(C(F)(F)F)c1	inactive: 18.1%	–
O=[N+]([O-])c1cc(C(F)(F)F)cc([N+](=O)[O-])c1N1CCCNCC1	inactive: 11.5%	–
COc1ccc(O)c(C(=O)c2cnc3c(c2)c(C)nn3C)c1	inactive: -11.1%	–
NS(=O)(=O)c1ccc(CNc2nc(-c3cccnc3)nc3ccccc23)cc1	inactive: 3.93%	–
O=C(CN1CCc2ccccc21)NCc1ccccc1Cl	–	active: 12.6 µM
Clc1cccc(Cl)c1C1Nc2cccc3cccc(c23)N1	inactive: -4.07%	–
O=C(C1CC1)N1CCN=C1SCc1ccc(Cl)cc1	inactive: -5.58%	–
CC1CCC2(CC1)NC(=O)N(NC(=O)CCc1c[nH]c3ccccc13)C2=O (stereo not drawn)	inactive: 18.3%	–
CCCCOC(=O)C1=C(N)N2C(=O)C(C)SC2=C(C(=O)OCC)C1c1ccc(O)c(OC)c1 (stereo not drawn)	inactive: -56%	–
Cc1ccc(-c2nnn(CC(=O)N(CCCO)C(C(=O)NC3CCCC3)c3ccc(F)cc3)n2)o1 (stereo not drawn)	inactive: 3.36%	–
COc1ccccc1NC(=O)N1CCCC1C(=O)NCc1cccs1 (stereo not drawn)	inactive: -7.13%	–
COc1ccc(NC(=O)COc2ccc(C(=O)OCC(=O)N(C(C)C)C(C)C)cc2OC)cc1	inactive: 8.22%	–

SMILES	growth rescue (activation)	Potency
Cn1c(CNc2cccc(C(F)(F)F)c2)n[nH]c1=S	inactive: 7.25%	–
CCOc1ccc(/C=N/NC(=O)C(C)Sc2ccccn2)cc1OCC (stereo not drawn)	inactive: -0.858%	–
CCOC(=O)C1CCCN(C(=O)c2cc(F)cc(F)c2)CC1 (stereo not drawn)	inactive: 8.32%	–
Cc1ccc(-c2cc(C(=O)NC3CCCCC3)no2)cc1	inactive: 19.2%	–
CC(=O)Nc1ccc(-c2nc3ccccc3c(=O)o2)cc1	inactive: 7.17%	–
Cc1ccc(/C(O)=C2\C(=O)C(=O)N(Cc3cccnc3)C2c2ccccc2[N+](=O)[O-])cc1 (stereo not drawn)	inactive: 7.57%	–
CC(=O)Nc1ccc(S(=O)(=O)NNC(=O)COc2cccc3ccccc23)cc1	inactive: 11.3%	–
COc1cc(NC(=S)N2CCc3ccccc3C2)cc(OC)c1	inactive: 3.77%	–
CC(C)Cc1nc(S(=O)(=O)c2ccc(Cl)cc2)c(N2CCOCC2)o1	inactive: -8.05%	–
O=C(NCCCn1ccnc1)c1cc2ccccc2oc1=O	inactive: 0.949%	–
Cc1ccc(NC(=O)CCn2c(=O)[nH]c3ccsc3c2=O)cc1C	inactive: 15.1%	–
CN(C)CCCNc1c2ccccc2nc2ccccc12	inactive: 9.8%	–
CCOC(=O)C1(Cc2cccc(OC)c2)CCN(C/C=C/c2ccccc2)CC1	inactive: 12.9%	–
COCCn1c(CN2CCN(C(c3ccccc3)c3ccccc3)CC2)nc2c1c(=O)n(C)c(=O)n2C	inactive: 4.17%	–
COc1cc(C(=O)O/N=C2/C=C(C)C(=O)C=C2C)cc(OC)c1OC	inactive: 3.44%	–
CC(C)C(c1nnnn1Cc1ccc(F)cc1)N1CCN(c2ccc(O)cc2)CC1 (stereo not drawn)	inactive: 4.99%	–
C=CCn1cnnc1SCC(=O)N(C)CC1COc2ccccc2O1 (stereo not drawn)	inactive: 15.8%	–
O=c1[nH]c2cc([N+](=O)[O-])c(NCCO)c([N+](=O)[O-])c2[nH]1	inactive: -15.9%	–
CN(CC(=O)Nc1ccc(Cl)c(Cl)c1)C(=O)/C=C/c1ccc(F)cc1	inactive: 2.97%	–
CC(Sc1nnc(Cc2cccs2)n1C1CC1)C(=O)NC1CCS(=O)(=O)C1 (stereo not drawn)	inactive: 9.47%	–
CN(C(=O)c1ccccc1C(=O)OCC(=O)NCc1cccs1)C1CCCCC1	inactive: 5.94%	–
COc1cccc(/C=N/Nc2nccnc2Cl)c1O	inactive: 22%	–

SMILES	growth rescue (activation)	Potency
CCOc1cccc(NC(=O)CSc2sc3c(O)cc(=O)[nH]c3c2C#N)c1	inactive: 11.9%	–
O=C(CN(CCc1ccccc1)S(=O)(=O)c1ccc(Br)cc1)N/N=C/c1ccccc1C(=O)O	inactive: -0.575%	–
COc1ccc(NC(=O)CN2C(=O)C(c3ccccc3)=NC23CCC(C)CC3)cc1Cl (stereo not drawn)	inactive: 13.3%	–
O=c1cc(O)c2sc3nc4c(c(C(F)(F)F)c3c2[nH]1)CCCCC4	inactive: 19.2%	–
COc1ccccc1C(=O)NNC(=O)C(=O)NC(C)C	inactive: -1.73%	–
NC(CCc1ccccc1)c1csc(Nc2ccc(C(=O)c3ccccc3)cc2)n1 (stereo not drawn)	inactive: 9.46%	–
COc1ccc(S(=O)(=O)NC2CCCCC2)cc1C(=O)N1CCCCC1	inactive: -3.47%	–
COc1ccc([N+](=O)[O-])cc1NC(=O)Nc1ccc(OC)c(OC)c1	inactive: 0.82%	–
COc1cccc(/C(O)=C/c2nc3ccc(C(=O)NCCc4cccc(C)c4)cc3[nH]c2=O)c1	inactive: -17.3%	–
COc1ccc(C(C)(C)C)cc1NC(=O)CCNC(=O)c1ccco1	inactive: -2.33%	–
CNc1ccc(C2(O)C(=O)c3ccccc3C2=O)cc1	inactive: 3.74%	–
C=C(C)C(=O)Nc1cccc(C(C)=O)c1	inactive: 26.3%	–
Cc1ccc(NC(=O)CNCc2ccc(Cl)cc2Cl)cc1S(=O)(=O)N(C)C	inactive: 3.52%	–
O=C(COc1nsnc1N1CCOCC1)Nc1ccc(Br)cc1	inactive: 1.38%	–
COc1cc(NC(=O)c2ccc3c(SCC(=O)O)c4c(nc3c2)CCCC4)cc(OC)c1OC	inactive: 9.57%	–
Cc1ccc(Nc2nc(-c3ccc(O)c(O)c3)cs2)nc1	inactive: -15.2%	–
Cc1ccc(NC(=O)c2ccccc2NS(=O)(=O)c2ccc(F)cc2)cc1S(=O)(=O)N1CCCCC1	inactive: 5.66%	–
CCOCc1nnc(NC(=O)CS(=O)(=O)c2ccc(C)cc2)s1	inactive: -5.01%	–
Cc1ccc(CN(CC(=O)NCc2ccc3c(c2)OCO3)C(=O)c2csnn2)cc1	inactive: -4.62%	–
Cc1ccc(-c2n[nH]c(=S)n2/N=C/c2c(C)[nH]n(-c3ccccc3)c2=O)cc1	inactive: 13.3%	–
Cc1nc(SCC(=O)N2CCNC2=O)c2ccccc2n1	inactive: 17.5%	–
Cc1cc(NC(=O)CN2CCN(C)CC2)no1	inactive: -11.2%	–

SMILES	growth rescue (activation)	Potency
CCOc1ccccc1CN1CCN(C2CCOCC2)CC1CCO (stereo not drawn)	inactive: 14.4%	–
CSC1=C(C#N)C(C)CC(=O)N1 (stereo not drawn)	inactive: 13.5%	–
CCOCC(=O)Nc1ccc([N+](=O)[O-])cc1Cl	inactive: 1.7%	–
O=C(CC(=O)c1ccccc1)Nc1ccc(Cl)cc1	inactive: 7.07%	–
CC(=O)Nc1ccc(S(=O)(=O)Nc2cccc(NC(=O)c3ccco3)c2)cc1	inactive: 12.7%	–
Cc1ccccc1OCCC(=O)Nc1ccc(Cl)cc1F	inactive: 14.8%	–
O=C(NNC1=NCCCCC1)Nc1cccc(Cl)c1	inactive: 8.07%	–
CCC(=O)NC(=S)Nc1ccc2oc(-c3ccc(OC)cc3)nc2c1	inactive: -5.67%	–
CCCn1c(-c2cccc(F)c2)nc2c1c(=O)[nH]c(=O)n2Cc1ccccc1	inactive: -2.15%	–
COc1cccc(CN2CCNC(=O)C2CC(=O)N(Cc2cnn(C)c2)C(C)C)c1 (stereo not drawn)	inactive: -0.466%	–
CCc1ccc(N2CC(C(=O)Nc3nc4ccc(S(C)(=O)=O)cc4s3)CC2=O)cc1 (stereo not drawn)	inactive: 10.1%	–
Cc1ccc(S(=O)(=O)N2CCN(CC(=O)NC3CCCc4ccccc43)CC2)cc1C (stereo not drawn)	inactive: 19.2%	–
COc1ccc(C2CC(=O)c3cnc(NC(=O)c4ccccc4)nc3C2)c(OC)c1 (stereo not drawn)	inactive: 26.6%	–
COc1ccc(Cc2nnc(NC(=O)C3CC(=O)N(c4ccccc4C)C3)s2)cc1OC (stereo not drawn)	inactive: -1.32%	–
COc1ccc(CNC(=O)CN(C(=O)c2snc(C(N)=O)c2N)c2cccc(F)c2)cc1	inactive: 7.49%	–
CCOc1ccc(NC(=S)N2CCN(S(C)(=O)=O)CC2)cc1	inactive: 6.57%	–
CCOC(=O)c1[nH]ncc1CN1CCCC(C(=O)c2ccc(SC)cc2)C1 (stereo not drawn)	inactive: -19.3%	–
O=C(CCCNC(=O)c1ccc(Cl)cc1)Nc1ccccc1F	inactive: -6.12%	–
O=C(N/N=C/c1cccs1)c1cc(-c2ccc(Cl)s2)[nH]n1	inactive: 9.68%	–
CCC(=O)N1CCc2cc(Br)cc(S(=O)(=O)CCC(=O)NCC3CCCO3)c21 (stereo not drawn)	inactive: -9.21%	–
